The IC50 comes from the fitted curve, where viability falls to half of the control; a fit beyond the top or the lowest dose is shown as a bound at that dose. The AUC spans the tested range (256-fold, ending at the top dose) of the same fit; the more sensitive the line, the further below 1. For part of these data: Where the top dose is marked as inferred, it was derived from the fitted curves, not read from the paper. For part of these data: An entry number marks a drug with two screens in the source, which often give different values.
Legend:
Experiment in all cases: Viability of human cancer cell lines after 72 h of drug (GDSC screen)
PI-103 = compound: Oc1cccc(-c2nc(N3CCOCC3)c3oc4ncccc4c3n2)c1 [PI-103]; conditions: top dose 10.24 µM
Method: (§1)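 Human cancer cell lines in 384-well plates, medium with 10% serum, drug for 72 h over a 256-fold dose range (nine 2-fold or five 4-fold steps up to the top dose). Adherent lines were fixed and stained with the nucleic acid dye Syto60, suspension lines read with resazurin; signal relative to control wells, capped at 0 and 100%. One two-parameter sigmoid per drug and line, fitted in a mixed model over all curves with the slope shared within a line.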

BX-795 = compound: O=C(NCCCNc1nc(Nc2cccc(NC(=O)N3CCCC3)c2)ncc1I)c1cccs1 [BX-795]; conditions: top dose 5 µM; top dose inferred
Method: as §1

Tretinoin = compound: CC1=C(/C=C/C(C)=C/C=C/C(C)=C/C(=O)O)C(C)(C)CCC1 [Tretinoin]; conditions: top dose 10 µM; top dose inferred
Method: as §1

SB-505124 = compound: Cc1cccc(-c2[nH]c(C(C)(C)C)nc2-c2ccc3c(c2)OCO3)n1 [SB-505124]; conditions: top dose 10 µM; top dose inferred
Method: as §1

GSK690693 = compound: CCn1c(-c2nonc2N)nc2c(C#CC(C)(C)O)ncc(OC[C@H]3CCCNC3)c21 [GSK690693]; conditions: top dose 10.24 µM; top dose inferred
Method: as §1

UNC0638 = compound: COc1cc2c(NC3CCN(C(C)C)CC3)nc(C3CCCCC3)nc2cc1OCCCN1CCCC1 [UNC0638]
Method: as §1

[1] = top dose 20 µM, screen: GDSC drug entry 1236, top dose inferred
[2] = top dose 40 µM, screen: GDSC drug entry 245

| Cell Line | AUC (PI-103) | IC50 (PI-103) [µM] | AUC (BX-795) | IC50 (BX-795) [µM] | AUC (Tretinoin) | IC50 (Tretinoin) [µM] | AUC (SB-505124) | IC50 (SB-505124) [µM] | AUC (GSK690693) | IC50 (GSK690693) [µM] | AUC (UNC0638; [1]) | IC50 (UNC0638; [1]) [µM] | AUC (UNC0638; [2]) | IC50 (UNC0638; [2]) [µM] |
| --- | --- | --- | --- | --- | --- | --- | --- | --- | --- | --- | --- | --- | --- | --- |
| DoTc2-4510 (cervix, adherent) | 0.941 | > 10.2 | 0.801 | 2.3 | 0.938 | > 10 | 0.987 | > 10 | 0.986 | > 10.2 | 0.963 | > 20 | 0.868 | 33.4 |
| EBC-1 (lung squamous cell carcinoma, adherent) | 0.527 | 0.766 | 0.866 | > 5 | 0.883 | > 10 | 0.981 | > 10 | 0.976 | > 10.2 | 0.912 | > 20 | 0.982 | > 40 |
| ECC10 (stomach, suspension) | 0.786 | 4.63 | 0.772 | 2.02 | 0.891 | > 10 | 0.914 | > 10 | 0.89 | > 10.2 | 0.629 | 2.88 | 0.657 | 6.99 |
| EFM-192A (breast, adherent) | 0.985 | > 10.2 | 0.937 | > 5 | 0.806 | 5.79 | 0.944 | > 10 | 0.985 | > 10.2 | 0.881 | > 20 | 0.839 | 31.9 |
| EFO-21 (ovary, adherent) | 0.912 | > 10.2 | 0.899 | > 5 | 0.954 | > 10 | 0.941 | > 10 | 0.91 | > 10.2 | 0.951 | > 20 | 0.759 | 20 |
| EFO-27 (ovary, adherent) | 0.613 | 1.42 | 0.895 | > 5 | 0.957 | > 10 | 0.976 | > 10 | 0.717 | 3.13 | 0.806 | 13.4 | 0.749 | 15.9 |
| EGI-1 (biliary tract, adherent) | 0.964 | > 10.2 | 0.858 | > 5 | 0.914 | > 10 | 0.979 | > 10 | 0.982 | > 10.2 | 0.961 | > 20 | 0.962 | > 40 |
| EMC-BAC-1 (lung adenocarcinoma, adherent) | 0.553 | 0.909 | 0.81 | 3.09 | 0.966 | > 10 | 0.964 | > 10 | 0.888 | > 10.2 | 0.758 | 7.86 | 0.752 | 14.9 |
| EMC-BAC-2 (lung adenocarcinoma, adherent) | 0.45 | 0.455 | 0.669 | 1.02 | 0.977 | > 10 | 0.969 | > 10 | 0.98 | > 10.2 | 0.811 | 13.1 | 0.834 | 33.1 |

Source: the supplement of paper PMC4967469
